The supplement of paper PMC9433436
± gives the standard deviation of the averaged measurements. In all, about 4,100 sequences were measured (“relative kcat/Km (krel) vs genomic leader AAAGAU”: median about 1.7, highest 2% from about 6.5 on). This is a selection; strong and weak results do not stand in their true shares.

Molecular target: T1, E. coli RNase P holoenzyme (M1 P RNA + rnpA protein) (UniProt P0A7Y8)
T1 sequence: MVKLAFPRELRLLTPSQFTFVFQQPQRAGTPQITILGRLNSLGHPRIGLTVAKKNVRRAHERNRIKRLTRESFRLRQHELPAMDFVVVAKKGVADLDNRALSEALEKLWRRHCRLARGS
Assay: relative kcat/Km (krel) vs genomic leader AAAGAU (relative (reference leader = 1)); higher = faster RNase P cleavage
Description: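 HTS-Kin: a pool of ptRNA-Met (21C construct) with all 4096 combinations of 5' leader nucleotides N(-6) to N(-1) was processed in vitro by E. coli RNase P (P RNA + rnpA/C5 protein) under multiple-turnover conditions at 37 C, pH 8, 17.5 mM MgCl2. Residual substrate was Illumina-sequenced at several fractions reacted, and relative kcat/Km (krel) was computed by internal competition kinetics, calibrated to the genomic leader (AAAGAU = 1). The listed hexamer is the varied N(-6)..N(-1) leader (DNA letters), and it sits between a fixed 5' stem-loop flank (GCAUGCACGAAAGUGCGUGCUAUGAA) and the mature tRNA-Met starting GGCUACGUAGCUCAGUUGG. Two technical replicates are averaged.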

[1] = fraction of substrate reacted: ~9-10% (9.79% repeat 1, 9.1% repeat 2)
[2] = fraction of substrate reacted: ~13-16% (15.68% repeat 1, 13.17% repeat 2)
[3] = fraction of substrate reacted: ~26-29% (28.66% repeat 1, 26.4% repeat 2)

Sequence	relative kcat/Km [1]	relative kcat/Km [2]	relative kcat/Km [3]
CGTATA	2.37 ± 0.34	2.75 ± 0.17	3.94 ± 1.5
CAAGCC	1.4 ± 1.1	1.2 ± 0.15	1.48 ± 0.25
CGTCTA	2.04 ± 0.68	1.72 ± 0.69	3.18 ± 0.97
GCTATG			1.51 ± 0.12
AGGCAA	1.11 ± 0.12	1.73 ± 1	1.67 ± 0.96
ATGGTA	1.21 ± 0.78		
GTCTTC	4.4 ± 1.6	5.61 ± 1.7	8.18 ± 3.4
GTAAAT	2.07 ± 1.7	2.38 ± 0.55	3.67 ± 1.6
CGCTTG			1.51 ± 0.34
CAAGGT			1.16 ± 0.52
GACAGC	3.44 ± 1	4.06 ± 0.54	5.59 ± 1.6
GACATG		0.833 ± 0.46	2.54 ± 0.35
CTGACA	1.9 ± 0.82	1.54 ± 0.31	1.82 ± 0.74
CTTGCT	1.48 ± 0.66	0.78 ± 0.34	0.634 ± 0.4
ATCACT	3 ± 0.43	3.58 ± 1.1	4.98 ± 2
GACGGG			0.48 ± 0.19
TGTTTT	2.55 ± 1.1	3.26 ± 0.74	4.79 ± 2.2
ATTAGG			1.02 ± 0.065
TTAAAA	3.19 ± 1.2	3.14 ± 0.18	3.66 ± 1.1
ACATAG		1.51 ± 0.51	2.81 ± 0.35
AGGCGA	1.75 ± 0.52	1.53 ± 0.42	1.62 ± 0.89
AGCTTC	3.01 ± 2.6	3.13 ± 0.044	4.01 ± 0.73
GCAGGT			2.27 ± 1.8
GATGCT	1.82 ± 1.3	0.597 ± 0.25	1.32 ± 0.42
GCCAAT	3.15 ± 0.068	2.75 ± 1.7	4.52 ± 2.3
ACACCG			0.502 ± 0.38
ACCGTG			0.821 ± 0.57
TGGTCG	0.453 ± 0.18		0.732 ± 0.22
TTAGCT	2.11 ± 1.6	1.43 ± 0.17	1.43 ± 0.1
